Source: PubChem BioAssay AID463173 (ICCB-Longwood Screening Facility, Harvard Medical School, 2010)
In all, about 52,000 compounds went through this assay and about 1,700 (3.3%) were called active. Rule as the data show it: active = survival mostly below about 52% (no sharp cut-off); inactive = mostly above about 56%. The list shows a part of the results.

tested on: Wild type; assay: growth inhibition of S. aureus wild type versus tarO mutant, primary screen, teichoic acid synthesis inhibitors, RN4220, OD600 (AID 463173); settings: S. aureus RN4220 wild type/DeltatarO growth, OD600, 18 h, hits give low values, screened at 18.75 µg/mL (by protocol)

Compound | survival
COc1cc(C(=O)N2CCc3c([nH]c4ccccc34)C2c2ccc(F)cc2)cc(OC)c1OC (centres undefined) | inactive: 132%
CCC(=O)N1CCc2cc(CNC(=O)Cc3ccc(OC)c(OC)c3)ccc21 | inactive: 59%
Cc1ccccc1Cn1cnc2c(oc3ccccc32)c1=O | inactive: 79%
CCOc1ccccc1CNC(=O)C1CCN(C(=O)N2CCOc3ccc(Cl)cc32)CC1 | inactive: 84%
CCN(CC)C(=O)Cn1ncc2c([nH]c3ccc(C)cc32)c1=O | inactive: 57%
COc1ccc(NC(=O)c2ccc3c(c2)N(Cc2cccc(Cl)c2)C(=O)c2ccccc2S3(=O)=O)cc1Cl | inactive: 100%
FC(F)(F)c1ccc2c(c1)ncc1c(-c3ccccc3)nn(-c3ccccc3)c12 | inactive: 125%
NC(=O)CN1C(=O)C(O)(CC(=O)/C=C\c2ccccc2)c2ccccc21 (centres undefined) | inactive: 112%
Cc1ccc(-n2nc(C(=O)NCc3ccc(F)cc3Cl)c3c4ccccc4n(C)c3c2=O)cc1 | inactive: 124%
Cc1cc(C)n2nc(-c3ccc(Cl)cc3)nc2n1 | inactive: 87%
Cc1cccc(N2CCN(c3nc4ccc(C(=O)c5ccccc5)cc4n4cnnc34)CC2C)c1 (centres undefined) | inactive: 67%
COCCNC(=O)c1cc(-c2ccccc2)on1 | inactive: 96%
CCOC(=O)c1c(NC(=O)CSc2cn(CCNC(=O)c3ccc(OC)c(OC)c3)c3ccccc23)sc2c1CCC2 | inactive: 85%
Cc1cn2c(=O)cc(COC(=O)c3cccc(NC(=O)COc4ccccc4)c3)nc2s1 | inactive: 47%
CC(C)Oc1ccc(CNC(=O)c2ccc(CS(=O)Cc3ccccc3Cl)o2)cc1 (centres undefined) | inactive: 113%
COc1ccc(OC)c(NC(=O)c2oc3c(c2C)-c2nn(Cc4ccc(Cl)cc4)cc2CC3)c1 | inactive: 119%
COC(=O)CN1C(=O)CSc2ccc(S(=O)(=O)Nc3ccccc3)cc21 | inactive: 81%
Cc1cccc(OCCSc2nc3ccc(NC(=O)COc4ccccc4C)cc3s2)c1 | inactive: 94%
CC(CC(=O)Nc1ccccc1)c1ccccc1 (centres undefined) | inactive: 106%
Cc1ccc2c(CC(=O)N3CCN(c4cccc(Cl)c4)CC3)coc2c1C | inactive: 79%
CC(=O)Nc1ccc(NC(=O)Cn2cc3c(n2)CCCCC3)cc1 | inactive: 122%
COCCN(Cc1ccco1)C(=O)c1cc2c(Cl)nc3ccc(C)cc3c2s1 | inactive: 79%
CCN(CC)CCCNC(=O)CSc1nc2nc(C)c(Cc3ccccc3C)c(C)n2n1 | inactive: 75%

Compound | survival
COc1ccc(NC(=O)Cn2nc(SC)c(S(=O)(=O)c3ccc(C)cc3)c2N)cc1OC | inactive: 19%
O=c1[nH]c2cc3c(cc2cc1CN(CCN1CCOCC1)C(=S)Nc1ccccc1)OCCO3 | inactive: 109%
COc1ccc(-n2nc(C(=O)NCCCOC(C)C)c3c4ccccc4n(C)c3c2=O)cc1 | inactive: 78%
O=C(O)c1ccc2oc(=O)n(Cc3ccccc3)c2c1 | inactive: 70%
O=C(Nc1c(Cl)cccc1Cl)c1cccc2c1C(=O)N(C1CCCCC1)C2 | inactive: 79%
CCC(=O)N1CCc2cc(Br)cc(S(=O)(=O)CCC(=O)N(C)c3cccc(C)c3)c21 | inactive: 70%
CCOc1ccc(NC(=O)CC2C(=O)N(c3ccc(F)cc3)C(=O)N2CCc2sccc2C)cc1 (centres undefined) | inactive: 73%
O=C(CN(C(=O)c1csnn1)c1ccccc1)NCc1ccc2c(c1)OCO2 | inactive: 114%
COc1ccc(CNc2nc3c(-c4ccc(C)cc4)nnn3c3ccccc23)cc1 | inactive: 77%
COc1ccc(C2C(=O)N(C3CCC(C)CC3)CC(=O)N2C2CCCCC2)cc1OC (centres undefined) | inactive: 64%
Cc1ccc2c(c1)C(O)(C(=O)NC(N)=O)C(=O)N2 (centres undefined) | inactive: 114%
Fc1ccccc1N1CCN(c2ncnc3c2nc2n3CCCCC2)CC1 | inactive: 73%
CCCS(=O)(=O)NCCc1csc2nc(-c3ccc(C)cc3)nn12 | inactive: 76%
CS(=O)(=O)Nc1ccccc1C(=O)O | inactive: 106%
Cc1occc1-c1nnc(SCC(=O)NCc2ccc3c(c2)OCO3)n1CC(C)C | inactive: 108%
CCOC(=O)c1cc2c(=O)n3ccccc3nc2n(CCCOC)c1=NC(=O)c1c(-c2ccccc2Cl)noc1C | inactive: 66%
COCCNS(=O)(=O)c1ccc(S(=O)(=O)N2CCCCC2)cc1 | inactive: 100%
Cc1nc2nc(C)c(NS(=O)(=O)c3ccc(F)cc3)c(=O)n2[nH]1 | inactive: 81%
Cc1ccccc1OCCCn1c(CCNC(=O)C2CCCCC2)nc2ccccc21 | inactive: 65%
O=C(Cn1cnc(S(=O)(=O)N2CCCC2)c1)Nc1cccc(F)c1 | inactive: 65%
CCOc1ccc(NC(=O)C2CCCN(c3nn4cc(-c5ccc(OC)cc5)nc4s3)C2)cc1 (centres undefined) | inactive: 132%
Cc1ccc2c(c1)nnn2C1CCN(CC(=O)N(c2ccccc2)c2ccccc2)CC1 | inactive: 105%
CC(=O)OC(C(=O)n1nc(C)cc1C)c1ccccc1 (centres undefined) | inactive: 113%

Compound | survival
Cc1ccc(NC(=O)c2sc3nc4n(c(=O)c3c2C)CCCCC4)c(Br)c1 | inactive: 82%
CN(C(=O)Cn1c(=O)n(CCC(=O)NCc2ccc3c(c2)OCO3)c(=O)c2sccc21)c1ccccc1 | inactive: 93%
Cc1ccc(-n2ncc(C(=O)N3CCN(C4CCCCC4)CC3)c2C2CCN(C(=O)OC(C)(C)C)CC2)cc1C | inactive: 80%
Cc1cccc(N2CCN(C(=O)CCCn3c(=O)[nH]c4ccsc4c3=O)CC2)c1C | inactive: 66%
CCCCCCc1c(C)c2c(cc(C)c3c(C)c(C)oc32)oc1=O | inactive: 114%
O=C1CC(c2nc3ccccc3n2CCC2CCCCC2)CN1c1ccccc1Cl (centres undefined) | active: 32%
CCCCN(C(=O)Nc1ccc(Cl)cc1)C1CCN(C(C)=O)CC1 | inactive: 83%
CC(=O)c1cccc(NC(=O)C2=CC(c3ccc(F)cc3)=NS(=O)(=O)N2C)c1 | inactive: 79%
CCNc1nc(SCC(=O)OC)nc(N(C)C)n1 | inactive: 110%
Oc1c(C(c2ccccc2F)N2CCC3(CC2)OCCO3)sc2nc(-c3ccco3)nn12 (centres undefined) | inactive: 74%
O=C(CN1CC(=O)Oc2ccccc21)OCC(=O)c1ccc(F)cc1 | inactive: 104%
Cc1ccc2onc(CC(=O)N3CCN(c4ccc(Cl)cc4)CC3)c2c1 | inactive: 49%
CCN(c1ccc(Cl)cc1)S(=O)(=O)c1nnc(NC(=O)c2ccco2)s1 | inactive: 70%
O=C(NCCc1ccccc1)c1ccc(Cn2c(=O)c3cccn3c3cccnc32)cc1 | inactive: 78%
COc1ccc(OC)c(CNC(=O)c2ccc(Sc3ccc(Cl)cc3)c(NC(C)=O)c2)c1 | inactive: 73%
CC(C)C(=O)Nc1nncs1 | inactive: 115%
COC(=O)c1cc2oc3ccccc3c2n1CC(=O)Nc1ccc(OC)c(OC)c1 | inactive: 95%
O=C(NC1CCCCC1)c1ccc(CSc2nc3ccncc3n2Cc2ccccc2)cc1 | inactive: 96%
Cc1ccc(NC(=O)Cn2c(=O)n(CCCC(=O)NCc3ccc4c(c3)OCO4)c(=O)c3ccccc32)cc1 | inactive: 97%
CCOc1cc(C2C(C(=O)Nc3ccccc3)=C(C)Nc3ncnn32)cc(Br)c1O (centres undefined) | inactive: 66%
CCC(C)NC(=O)C1CCN(S(=O)(=O)c2ccc(-n3cnnn3)cc2)CC1 (centres undefined) | inactive: 108%
Cc1cc2c(cc1S(=O)(=O)N(CCO)Cc1ccccc1)OCC(=O)N2 | inactive: 64%
CCNS(=O)(=O)c1cc(-c2nnc(Nc3cccc(C(F)(F)F)c3)c3ccccc23)ccc1C | inactive: 68%

Compound | survival
Cc1ccc2cc(C#N)c(SCC(=O)NCc3ccco3)nc2c1 | inactive: 103%
Cc1ccc(C)c(NC(=O)CCS(=O)(=O)c2cccc3nsnc23)c1 | inactive: 122%
CCc1cccc(CC)c1N(COC)C(=O)Cn1c(CC)nc2ccccc21 | inactive: 74%
Cc1ccc(NC(=O)Cn2c(CCC(=O)O)ccc2-c2cccs2)cc1Cl | inactive: 77%
CC(=O)N1CC=C2C(C#N)=C(N)C(C#N)(C#N)C(CCc3ccccc3)C2C1 (centres undefined) | inactive: 114%
Cc1ccc(C)c(N2CCN(C(=O)C3CCN(S(=O)(=O)c4ccc5[nH]c(=O)oc5c4)CC3)CC2)c1 | inactive: 76%
CCc1ccc2nc(N3CCN(C(=O)c4ccccc4)CC3)sc2c1 | inactive: 69%
Cn1c(=O)oc2cc(S(=O)(=O)N3CCCC(C(=O)N4CCN(c5ccc(Cl)cc5)CC4)C3)ccc21 (centres undefined) | inactive: 91%
CN(C(=O)CSc1nc2ccc(NC(=O)c3ccccc3F)cc2s1)c1ccccc1 | inactive: 110%
COC(=O)c1cccc(NC(=O)N(C)CCc2c(C)nn(C)c2C)c1 | inactive: 59%
Cc1ccc(CNC(=O)c2cccc(N3CCCS3(=O)=O)c2)cc1 | inactive: 70%
CCc1ccc(-n2nc3ccc(NC(=O)c4cc(Cl)c(OC)c(Cl)c4)cc3n2)cc1 | inactive: 72%
Cc1ccc(NC(=O)CN(CCc2ccccc2)S(=O)(=O)c2ccccc2)c(C)c1 | inactive: 63%
CCOc1ccc(CNC(=O)Cn2nc(C)n3cccc3c2=O)cc1 | inactive: 96%
CCOc1ccc(C2C(=O)N(C3CCCCCC3)CC(=O)N2CCC2=CCCCC2)cc1OC (centres undefined) | inactive: 73%
CCCCn1cc(S(=O)(=O)c2ccc(OCC)cc2)c(=O)c2cc(OC)c(OC)cc21 | inactive: 63%
CCOc1ccc(N2CC(C)Cn3c2nc2c3c(=O)n(CC(=O)O)c(=O)n2C)cc1 (centres undefined) | inactive: 65%
COc1cc(N2C(=O)CSC23C(=O)N(C)c2ccccc23)cc(OC)c1OC (centres undefined) | inactive: 65%
COc1ccc(CN2CCc3nc(Nc4ccccc4)ncc3C2)c(OC)c1OC | inactive: 112%
Cc1ccc(CNC(=O)Cn2c(=O)n(Cc3ccccc3)c(=O)c3c2c2cc(C)ccc2n3C)cc1 | inactive: 74%
